# Data: PubChem BioAssay (NCI)
#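 Where inhibition never reached the appropriate level, the endpoint shown equals the highest concentration tested. Otherwise, values were interpolated linearly from a five-concentration, 48-hour dose response in 96-well plates. GI50: concentration for 50% inhibition of growth. Definition used: TGI = concentration required for complete inhibition of growth.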
# System: NCI-H322M lung
# Assay: NCI anticancer screen, dose series, 48 h
Structure (SMILES),GI50 [µM],TGI [µM]
C[C@@H]1OC(=O)NN=C1c1ccc(-c2ccc(F)cc2)c(C(F)(F)F)c1,15,28.5
C=C(C)[C@@H]1CC[C@]2(CN)CC[C@]3(C)[C@H](CC[C@@H]4[C@@]5(C)CCC(N)[C@@](C)(CO)[C@@H]5CC[C@]43C)[C@@H]12 (stereo not given in full),1.79,3.2
Fc1ccc2c(c1)cc1ccc3cccc4ccc2c1c34,,> 100
CCCCCCCCCCCCC(NC(C)=O)(C(=O)OCC)C(=O)OCC,15.3,31.4
Cn1c(O)c(C=Nc2ccc(Cl)cc2Cl)c(=O)n(C)c1=O,,> 100
Cc1c(C#N)c(N)n(C2OC(CO)C(O)C(O)C2O)c(=S)c1C#N (stereo not given),,> 100
NS(=O)(=O)c1ccc(N2C(=O)C(=O)N(c3ccccc3)C2=S)cc1,,> 100
C[C@]12CC/C(=N\O)C=C1CC[C@@H]1[C@@H]2CC[C@]2(C)C(=N/O)/C(=C/c3ccncc3)C[C@@H]12,,77.1
COc1ccc2[nH]c3c(C)c4ncccc4c(C)c3c2c1,,> 10
CC1=CC2=C(C#N)C(=O)OC2(C)C(c2ccccc2)C1 (stereo not given),,> 100
CCCCSC1=N/C(=C\c2ccc(N(C)C)cc2)C(Cl)=N1,,> 100
C/C=C(\C)C(=O)N1c2ccccc2CC1c1c(C)[nH]c2ccccc12 (stereo not given),,> 100
CCCCCCCCCC[N+](C)(C)C,3.65,15.4
COc1cc2ccc3c4cc(OC)c(OC(C)C)cc4c[n+](C)c3c2cc1OC,,> 100
COC(=O)c1ccc(/C=C/S(=O)(=O)c2ccccc2)cc1,,> 100
CC(=O)OCc1nnn2c1CCC2,,> 100
C[C@@]1(O)CCC[C@H]1n1c(=O)c(C(F)F)cc2cnc(NC3CCN(S(C)(=O)=O)CC3)nc21,2.1,8.9
O=C(CC1SC(=Nc2ccccc2Cl)NC1=O)Nc1ccc(Cl)cc1 (stereo not given),,> 100
COC1C(OC(C)=O)CC(=O)OC(C)C/C=C/C=C\C(O)C(C)CC(CC=O)C1OC1OC(C)C(OC2CC(C)(O)C(OC(=O)CC(C)C)C(C)O2)C(N(C)C)C1O (stereo not given),,> 100
c1ccc(N2N=C3N(c4ccccc4)C2N3c2ccccc2)cc1,,> 100
CCC(=O)Nc1ncnc2ncn(C(=O)CC)c12,,> 100
CCOC(OCC)[C@H](N)[C@@H](O)[C@@H](O)[C@H]1COC(C)(C)O1,,> 100
Cn1cc2ccccc2c1-c1nc(F)nc(Nc2ccc(N)cc2)n1,,> 100

Structure (SMILES),GI50 [µM],TGI [µM]
COc1cc(C(=O)N(C(=S)OC23CC4CC(CC(C4)C2)C3)c2ccccc2)cc(OC)c1OC,,> 100
COc1cc2c(cc1OC)-c1ncc3cc(OC)c(OC)c(OC)c3c1C2,22.5,93.7
COc1ccc2c(c1)C(=O)[C@@](Nc1ccc(C=O)cc1)(OC)[C@@](OC)(c1ccc([N+](=O)[O-])cc1)O2,,> 10
CCN(CCCl)c1cc(CN(C)C)cc(NC(=O)c2ccc(C(=O)Nc3ccccc3)cc2)c1,,7.56
C=C(C1=CC(=O)C(C)(C)O1)[C@@H]1CC=C([C@@H]2CC[C@H]3[C@@]2(C)CC[C@H]2C(C)(C)C(=O)[C@H](OC(=O)CC(C)(O)CC(=O)O)C[C@]32C)[C@H](O)O1 (stereo not given in full),,> 75
COc1ccc2c(c1)C=C(C(C)(C)C)NS2(=O)=O,,> 100
Brc1ccc(C2CC3(c4ccccc4)ON=C(c4ccccc4)N3c3ccccc3S2)cc1 (stereo not given),,> 100
Cc1ccc(-n2c3c(c4c(CN)c(O)ccc42)CCc2ccccc2C3=O)cc1,16.7,30.7
CN=C(N)NC,,> 100
COc1ccc(-c2cc(-c3ccc(Cl)cc3)nc(SCCCCCCC(=O)NO)n2)cc1,1.78,41.1
COc1ccc(OCC(C)(C)O)cc1,,> 100
CCN(CC)c1ccc(/C=N/NC(=O)c2ccccc2Nc2ccnc(C(F)(F)F)c2)c(O)c1,0.155,> 100
FC(F)(F)C1(c2ccccc2)SCc2nc3ccccc3n21 (stereo not given),,> 100
C=CCN(c1cc(OC)c2c(c1[N+](=O)[O-])C(C)(SC)C(=O)N2)S(C)(=O)=O (stereo not given),,> 100
C=CCOC1OC(CS(=O)(=O)O)C(OC(C)=O)C(OC(C)=O)C1OC(C)=O (stereo not given),,> 100
Cc1nc(-n2nc(-c3ccccc3)cc2-c2ccccc2)sc1C(=O)/C=C/c1ccc(Cl)cc1,,45.3
CC1(C)/C(=N\Nc2ccc([N+](=O)[O-])cc2[N+](=O)[O-])C2CCC1C2 (stereo not given),,> 100
COc1cc(OC)cc(C(=O)Cc2c(C(=O)c3ccccc3)c3ccccc3n2C(=O)c2ccccc2)c1,,> 100
Cc1nn(C(=O)c2ccncc2)c2c1C(c1ccc([N+](=O)[O-])cc1)SC(N)=N2 (stereo not given),,> 100
C[C@H](C(O)CC(=O)C(C)(C)O)[C@H]1CC[C@@]2(C)[C@@H]3CC[C@H]4C(C)(C)[C@@H](OC5OC(COC6OC(CO)C(O)C(O)C6O)C(O)C(O)C5O)CC[C@]4(C)C3=CC[C@]12C (stereo not given in full),,> 100
COc1cccc(NC(=O)c2ccc(NC3=C(Cl)C(=O)N(Cc4ccccc4)C3=O)cc2)c1,23.9,67.3
COC(=O)C1(Cc2ccc(C)cc2)Cc2c(C)cccc2C1=O (stereo not given),,> 100
